# From the supplement of paper PMC6531468
# This is one part of the list. These are enrichments in a pooled selection; single values are uncertain. Scores sum up all selected molecules that hold the word; the word was not tested alone.
# Experiments:
# Experiment in all cases: 6-mer SELEX enrichment z-score vs GST control; IMP3 is the RNA-binding protein IGF2BP3; higher = more enriched by binding
# IMP3 KH1-4 = details: construct: KH1-4 (164-579); SELEX round: R4
# Description: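 SELEX-seq with GST-tagged IMP3 KH1-4 (Pro164-Lys579) and an N40 RNA pool, round 4. 6-mer z-score of sequence-tag enrichment normalised to the corresponding GST SELEX round; RNA k-mers written as DNA (T for U).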
# IMP3 RRM1-2 = details: construct: RRM1-2 (1-163); SELEX round: R2
# Chain of IMP3 RRM1-2 (chain, as listed by the source): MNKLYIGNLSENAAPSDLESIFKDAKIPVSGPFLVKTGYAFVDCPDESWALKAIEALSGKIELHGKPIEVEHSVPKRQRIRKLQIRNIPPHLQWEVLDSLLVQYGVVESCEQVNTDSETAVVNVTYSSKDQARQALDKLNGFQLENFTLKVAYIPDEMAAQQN
# Description: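 SELEX-seq with GST-tagged IMP3 RRM1-2 (Met1-Asn163) and an N40 RNA pool, round 2. 6-mer enrichment z-score normalised to GST SELEX. RNA written as DNA (T = U).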
# IMP3 full-length = IMP3 full-length (UniProt O00425); details: construct: FL IMP3 (1-579); SELEX round: R4
# Chain of UniProt O00425 (O00425 whole entry): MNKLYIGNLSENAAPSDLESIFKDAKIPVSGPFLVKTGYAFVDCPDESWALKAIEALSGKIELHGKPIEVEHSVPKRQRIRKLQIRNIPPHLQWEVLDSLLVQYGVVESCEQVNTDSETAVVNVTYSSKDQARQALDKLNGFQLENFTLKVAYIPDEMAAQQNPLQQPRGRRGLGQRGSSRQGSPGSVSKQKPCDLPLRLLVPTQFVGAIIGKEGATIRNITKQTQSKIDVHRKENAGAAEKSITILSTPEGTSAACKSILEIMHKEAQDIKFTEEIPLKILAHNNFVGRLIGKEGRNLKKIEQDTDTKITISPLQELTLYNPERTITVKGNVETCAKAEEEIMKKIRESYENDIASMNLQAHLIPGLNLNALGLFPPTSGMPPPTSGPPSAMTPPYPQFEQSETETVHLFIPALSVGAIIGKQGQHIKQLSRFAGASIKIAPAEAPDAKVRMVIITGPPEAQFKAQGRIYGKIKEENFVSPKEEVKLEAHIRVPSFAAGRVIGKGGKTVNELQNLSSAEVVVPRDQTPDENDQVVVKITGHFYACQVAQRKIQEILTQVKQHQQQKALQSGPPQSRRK
# Description: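 SELEX-seq with GST-tagged full-length IMP3 and an N40 RNA pool, round 4. Each 6-mer is scored as an enrichment z-score of sequence tags containing it, normalised to the matching GST SELEX round. RNA written as DNA (T = U).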
# IMP3 KH1-2 = details: construct: KH1-2 (164-376); SELEX round: R4
# Chain of IMP3 KH1-2 (chain, as listed by the source): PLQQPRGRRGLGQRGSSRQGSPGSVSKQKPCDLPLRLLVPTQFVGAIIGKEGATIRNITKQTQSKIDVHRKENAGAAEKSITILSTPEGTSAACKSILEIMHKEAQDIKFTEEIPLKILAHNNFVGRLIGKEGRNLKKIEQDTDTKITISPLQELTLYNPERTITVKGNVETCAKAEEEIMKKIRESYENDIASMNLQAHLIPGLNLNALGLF
# Description: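 SELEX-seq with GST-tagged IMP3 KH1-2 (Pro164-Phe376) and an N40 RNA pool, round 4 (stringent 300/600 mM KCl washes). 6-mer z-score of sequence-tag enrichment normalised to the corresponding GST SELEX round; RNA k-mers written as DNA (T for U).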
# Chain of IMP3 KH1-4 (chain, as listed by the source): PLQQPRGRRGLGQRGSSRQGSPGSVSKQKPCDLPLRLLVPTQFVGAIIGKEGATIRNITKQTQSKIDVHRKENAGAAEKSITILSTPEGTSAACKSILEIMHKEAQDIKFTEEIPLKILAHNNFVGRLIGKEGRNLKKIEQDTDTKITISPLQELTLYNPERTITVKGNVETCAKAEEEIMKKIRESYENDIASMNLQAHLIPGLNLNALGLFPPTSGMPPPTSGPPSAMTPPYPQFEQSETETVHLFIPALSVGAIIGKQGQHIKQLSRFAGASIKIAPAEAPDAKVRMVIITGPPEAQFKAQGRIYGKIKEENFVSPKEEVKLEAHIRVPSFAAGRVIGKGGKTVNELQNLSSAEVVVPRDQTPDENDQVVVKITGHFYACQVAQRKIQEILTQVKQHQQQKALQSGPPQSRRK
Sequence,6-mer SELEX enrichment z-score (IMP3 KH1-4),6-mer SELEX enrichment z-score (IMP3 RRM1-2),6-mer SELEX enrichment z-score (IMP3 full-length),6-mer SELEX enrichment z-score (IMP3 KH1-2)
TAATGT,0.759,-0.166,-0.191,
ATCAAT,1.51,1.9,1.84,
AGACAG,0.546,-0.197,0.571,
CAAAAA,-2.28,-1.98,-3.21,-1.83
ACTTGC,-0.357,0.111,-0.389,-0.411
GCGTGG,-2.04,0.15,-1.05,-1.74
CCCGGT,-0.791,-0.39,-0.253,-0.614
AACGCG,-1.64,-0.689,-0.997,-1.53
CTTACC,-0.757,-0.303,-0.837,
ACCCGT,-0.977,-0.542,-0.694,
CTGTAG,-0.327,0.058,-0.28,
ATCGCG,-0.734,0.053,-0.014,
CGTATA,-0.21,-0.131,-0.365,
CAGCGT,-3.03,0.158,,
ACTTTC,0.899,0.347,0.248,
AACTAG,-0.03,-0.598,-0.597,-0.199
ACAGTT,0.565,0.418,0.614,
CTGCTA,0.283,0.036,-0.066,
AGAGGT,0.301,-0.136,0.265,
CGCCAC,0.518,-0.022,0.717,
AAGCGT,-3.68,-0.527,-2.36,
TCGTCG,-0.188,0.408,0.361,
CTCAGC,-1.22,0.552,0.036,
CGCAAC,-0.162,0.347,0.637,0.008
CTTCCC,-0.276,-0.246,-0.822,
GGATAC,0.078,-0.214,-0.049,
AGCGCA,-1.34,0.038,-0.004,
AGCTTC,-0.328,0.317,0.046,
GAGCAC,-1.05,1.1,0.891,-0.935
